Results reported in article PMC12136788.
Some of the results follow.

B1: chr15:31385891:31385892:-_ENSMUSG00000039100_ENSMUST00000090227|mus_hu|motif|central (ssRNA)
RNA: GGGAGUUCUACAGUCCGACGAUCUCUACAAUAGUUAUUCCUAGACCUUAGAUUAGUCAUUACAUUUUUAUUUAAGGUACGGUGUUACUUUCAUGACUACAAAAUGAGGCACUCGUACAAAACAGGAAUGAAAACAUACAUAUACAACAGAGGAUUGAGCAUCA
B2: chr9:95013113:95013114:-_ENSG00000196305_ENST00000443024|hu_hu|hu_hu_hu_mus_False|8_28 (ssRNA)
RNA: GGGAGUUCUACAGUCCGACGAUCCUCAGUCAGAAAGGGCGUGUAAGGGGCCAUCAGUCUGCACAGAGAAAGCAGGACACUGAACAGUGUCUCCAGAGCCAUGACACAAUCCUCCAUCCCACUCUCACCCUUUAAUCUCCUCCUCAACAGAGGAUUGAGCAUCA
B3: chr5:32599118:32599119:+_ENSG00000113387_ENST00000502897|hu_hu|FALSE|FALSE (ssRNA)
RNA: GGGAGUUCUACAGUCCGACGAUCAGAAAUACCUUUUCUUCCUGGUUUCAUUUCACCUUCAGGAUCCAUCCAAUAUUCUCUAAUAUCAAUUAGCACUUUGCCUUUAAAAUCGCGAACACUAACGUACCUCAUUUUCCCAAUCUGCAACAGAGGAUUGAGCAUCA
B4: chr3:176740097:176740098:-_ENSG00000177565_ENST00000430069|hu_mus|hu_hu_hu_mus_True|8_48 (ssRNA)
RNA: GGGAGUUCUACAGUCCGACGAUCUGUUUUGUAUACCACAAAAGGAGGCACUUUCAGUAUCUGCAAAAGGUGUUUAGUCCUAAAACAUACUUACCUAGAGGAUAACUCAGGAAAACAAUCUGUUACACUAGUAUCUAUACUCCACAACAGAGGAUUGAGCAUCA
B5: 170108086_170108206_2274_3pUTR_ENSG00000136603_ENST00000458537|human|control|control (ssRNA)
RNA: GGGAGUUCUACAGUCCGACGAUCUGUUGUUUUAAAUAAGUUCUCAUUACUUCUUCCAUGAUUUUUCCCUUAUCAUCCUCACAAAUGACAUCUUUCACAAGAAGCGGAGAUGAAGCGGCAGCAACAAGGCCAAUUCCCACUUUGCAACAGAGGAUUGAGCAUCA
B6: chr1:220276048:220276049:+_ENSG00000067704_ENST00000302637|hu_hu|hu_hu_hu_mus_True|1_98 (ssRNA)
RNA: GGGAGUUCUACAGUCCGACGAUCGCAAAUUGCCUGGUUGGCUGGAAUUGUCCAAGGCUGGGUGGUCCAAACUAAAACGCUAACAGGGGAUGAGGCAUCUGUAAGAGACUCCAACUUCGGAGGAGGUCUCAGGAGGGGAAAUUUCAACAGAGGAUUGAGCAUCA

target: T1, UNK ZnF1-3 (human, UniProt Q9C0B0 31-174); test: nsRBNS (natural sequence RNA bind-n-seq); RBNS binding buffer (assumed for nsRBNS): 25 mM Tris pH 7.5, 150 mM KCl, 3 mM MgCl2, 0.01% Triton X-100, 500 ug/ml BSA, 20 U/ml SUPERase-In, 4 C; UNK is unkempt and MSI1 is Musashi-1; names of the RNAs are library labels; protein concentration not given here; high values mean tight binding
T1 sequence: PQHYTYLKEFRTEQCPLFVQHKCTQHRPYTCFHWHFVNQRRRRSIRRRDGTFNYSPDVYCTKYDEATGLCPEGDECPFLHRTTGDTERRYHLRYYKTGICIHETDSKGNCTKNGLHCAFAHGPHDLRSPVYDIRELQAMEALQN

| Binder | binding signal [enrichment R] |
| --- | --- |
| B1 | 0.714 |
| B2 | 1.27 |
| B3 | 0.824 |
| B4 | 0.802 |
| B5 | 1.32 |
| B6 | 1.3 |
